{"source": "PubChem BioAssay AID1476", "about": "(National Center for Advancing Translational Sciences (NCATS), 2009)", "note": "Where “and” joins values, the source holds several entries; their conditions need not be identical. Identical values can stand only once. In all, about 200,000 compounds went through this assay and about 4,500 (2.2%) were called active. The inconclusive results got no clear call from the source; some entries with a clear call stand among them for comparison. Calls come from the whole dose curve; as a rule, active = well fitted inhibition curve with a large enough effect; inconclusive = small, poorly fitted or top-dose-only effect, or effect the other way; inactive = flat fitted curve, though single readings scatter. A potency beside an inconclusive call is a rough fit, not a confirmed value. Potency is the fitted concentration of half-maximal effect; tags give direction and shape of the fitted curve."}
{"molecular_target": "Cruzipain (Trypanosoma cruzi) (UniProt P25779)", "sequence (P25779 whole entry, looked up)": "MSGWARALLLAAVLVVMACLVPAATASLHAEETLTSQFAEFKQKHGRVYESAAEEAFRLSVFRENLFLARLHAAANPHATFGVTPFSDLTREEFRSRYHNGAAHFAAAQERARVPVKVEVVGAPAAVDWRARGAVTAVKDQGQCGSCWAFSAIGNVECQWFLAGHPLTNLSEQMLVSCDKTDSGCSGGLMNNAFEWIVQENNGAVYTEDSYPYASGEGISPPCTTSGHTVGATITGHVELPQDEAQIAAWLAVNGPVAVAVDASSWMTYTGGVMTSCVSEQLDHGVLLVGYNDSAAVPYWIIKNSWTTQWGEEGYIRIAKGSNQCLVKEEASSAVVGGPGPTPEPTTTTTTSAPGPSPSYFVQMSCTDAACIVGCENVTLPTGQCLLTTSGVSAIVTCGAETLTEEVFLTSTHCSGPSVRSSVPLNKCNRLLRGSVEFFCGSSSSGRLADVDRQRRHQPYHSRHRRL", "test": "qHTS Assay for Promiscuous and Specific Inhibitors of Cruzain (without detergent); note: nearly all actives have a fitted effect of over 40% in size;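 for max response, negative = inhibition: plate controls were enzyme without inhibitor for no effect and buffer without enzyme for full effect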", "conditions": "purified cruzain, Z-FR-AMC fluorescence, no detergent", "in_short": "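Detergent-free condition (0.00005% Triton X-100) in acetate buffer pH 5.5 with DTT. 1.5 nM enzyme and compound were pre-mixed 15 min, then 2 uM Z-FR-AMC substrate added; reaction progress from fluorescence change between first and third reads (60 s).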"}
{"smiles": "CCOc1ccc(OCC)c(NC(=O)CN(C)S(=O)(=O)c2ccc3nc(C)sc3c2)c1", "Potency": "inconclusive: 25.1 µM [activator, partial curve]"}
{"smiles": "C/C(=N\\NC(=O)C(=O)Nc1cccc(C(F)(F)F)c1)c1ccc(Cl)s1", "Potency": "active: 15.8 µM"}
{"smiles": "CCOC(=O)c1c(C)n(S(=O)(=O)c2ccc(C)cc2)c2ccc(NS(=O)(=O)c3ccc(C)cc3)cc12", "Potency": "active: 3.98 µM"}
{"smiles": "CCOC(=O)c1c(C)[nH]c(C(=O)COC(=O)CCS(=O)(=O)c2ccc(C)cc2)c1C", "max response, negative = inhibition": "inactive: 1.28%"}
{"smiles": "O=[N+]([O-])c1ccc2nc(-c3ccccc3)cc(-c3ccccc3)c2c1", "Potency": "inconclusive: 39.8 µM [inhibitor, single point]"}
{"smiles": "N#CC(=C1SC=CS1)c1nc(-c2ccccc2)cs1", "Potency": "inconclusive: 31.6 µM [inhibitor, single point]"}
{"smiles": "CCOC(=O)c1ccc(/C=C2/C=C(c3ccccc3)N(c3ccc(Cl)c(C(=O)O)c3)C2=O)cc1", "Potency": "inconclusive: 31.6 µM [activator, single point]"}
{"smiles": "C=C(C)[C@]12C[C@@H](C)[C@@]34O[C@](Cc5ccccc5)(O[C@@H]1[C@@H]3C=C(COC(=O)Cc1ccc(O)c(OC)c1)C[C@]1(O)C(=O)C(C)=C[C@@H]41)O2", "Potency": "inconclusive: 14.1 µM [activator, partial curve]"}
{"smiles": "Cc1cc(-n2c(C)cc(C(=S)N3CCOCC3)c2C)ccc1Br", "Potency": "inconclusive: 25.1 µM [activator, single point]"}
{"smiles": "Cc1ccc(-c2cnc(N)n2C)cc1C", "Potency": "inconclusive: 39.8 µM [inhibitor, single point]"}
{"smiles": "Cc1csc(NC(=O)c2ccc(S(=O)(=O)N(C)c3ccccc3)cc2)n1", "Potency": "inconclusive: 39.8 µM [inhibitor, single point]"}
{"smiles": "COc1cc(/C=C/c2nc3cc(Cl)ccc3c(=O)n2-c2ccc(C)cc2C)cc(OC)c1OC", "max response, negative = inhibition": "inactive: -1.97%"}
{"smiles": "O=C(COc1cccc(NC(=O)c2cccc([N+](=O)[O-])c2)c1)c1ccc(Br)cc1", "Potency": "inconclusive: 31.6 µM [inhibitor, single point]"}
{"smiles": "CCCCOC(=O)Nc1cc(C(=O)OC)ccc1C(=O)OC", "Potency": "inconclusive: 39.8 µM [activator, single point]"}
{"smiles": "CCCCCOc1ccc(NC(=O)Cn2c(-c3cncs3)nc3ccccc32)cc1", "Potency": "inconclusive: 31.6 µM [activator, single point]"}
{"smiles": "CCOC(=O)N1CCN(Cc2nc3cc(NC(=O)c4ccc([N+](=O)[O-])cc4)ccc3n2C(C)C)CC1", "Potency": "inconclusive: 25.1 µM [activator, partial curve]"}
{"smiles": "Cc1nc(NC(=O)c2cccc(-c3cc4ccccc4oc3=O)c2)ccc1Br", "Potency": "active: 20 µM"}
{"smiles": "CCOc1ccc(C2C(C(N)=O)=C(C)Nc3nc(-c4cccc(Cl)c4)nn32)cc1OC", "note": "(stereo not drawn)", "Potency": "inconclusive: 39.8 µM [activator, single point]"}
{"smiles": "CC1=CC(C2CC(=O)N(c3ccccc3C)C2=O)CC2C(=O)N(c3ccccc3C)C(=O)C12", "note": "(stereo not drawn)", "Potency": "inconclusive: 31.6 µM [activator, single point]"}
{"smiles": "Cc1ccc(NC(=O)C2CCCN(S(=O)(=O)c3c(C)nn(C)c3C)C2)c(C)c1", "note": "(stereo not drawn)", "max response, negative = inhibition": "inactive: 8.7%"}
{"smiles": "CCc1nc2ccccc2c(=O)n1NC(=O)c1c(O)c2ccccc2[nH]c1=O", "Potency": "inconclusive: 31.6 µM [activator, single point]"}
{"smiles": "CCOC(=O)N1CCC(n2c(=S)[nH]c3cc(OCC)c(OCC)cc3c2=O)CC1", "Potency": "inconclusive: 39.8 µM [activator, single point]"}
{"smiles": "Cc1c(C(=O)OC2CCCCC2)sc2nc[nH]c(=O)c12", "Potency": "inconclusive: 39.8 µM [activator, single point]"}
{"smiles": "Cc1cccc(OCCSc2nc3ccccc3n2CC(=O)N2CCOCC2)c1C", "max response, negative = inhibition": "inactive: -11.2%"}
{"smiles": "COC(=O)[C@@]1(Cc2ccc(F)cc2)[C@H]2c3cc(C(=O)N(C)C)n(CCSCCO)c3C[C@H]2CN1C(=O)c1ccccc1", "Potency": "inconclusive: 10 µM [activator, partial curve] and inconclusive: 5.01 µM [activator, full curve]"}
{"smiles": "O=C(Nc1cccc(-c2nc3ccccc3[nH]2)c1)c1c(F)cccc1F", "Potency": "inconclusive: 0.126 µM [inhibitor, single point]"}
{"smiles": "COc1ccc(C2CC(C(F)(F)F)n3nc(C(=O)N(C)Cc4cn(C)nc4C)c(Cl)c3N2)cc1", "note": "(stereo not drawn)", "Potency": "inconclusive: 31.6 µM [activator, single point]"}
{"smiles": "COc1ccc(S(=O)(=O)Cc2ccc(C(=O)N3CCN(c4cc(C)ccc4C)CC3)o2)cc1", "Potency": "inconclusive: 20 µM [activator, partial curve]"}
{"smiles": "Cc1nn(Cc2ccccc2Cl)c2sc(C(=O)NCc3ccc4c(c3)OCO4)cc12", "Potency": "inconclusive: 39.8 µM [inhibitor, single point]"}
{"smiles": "O=C(O)c1cccnc1SCc1cccc(Cl)c1", "max response, negative = inhibition": "inactive: -7.51%"}
{"smiles": "CCOP(=O)(OCC)C(Nc1cccc(C(F)(F)F)c1)c1ccc(C)cc1", "note": "(stereo not drawn)", "Potency": "inconclusive: 39.8 µM [activator, single point]"}
{"smiles": "O=[N+]([O-])c1cccc(/C([O-])=C(/C(=S)Nc2ccccc2)[n+]2ccccc2)c1", "Potency": "active: 25.1 µM"}
{"smiles": "Cc1ccc(C(=O)NCC(=O)OCc2cc(=O)n3nc(C4CC4)sc3n2)cc1", "Potency": "inconclusive: 1 µM [activator, single point]"}
{"smiles": "COc1cc2c(cc1NC(=S)Nc1ccccc1C)oc1ccccc12", "Potency": "inconclusive: 39.8 µM [inhibitor, single point]"}
{"smiles": "CC(=O)OC1N=C(c2ccc(Cl)cc2)c2cc(Br)ccc2NC1=O", "note": "(stereo not drawn)", "Potency": "inconclusive: 39.8 µM [activator, single point]"}
{"smiles": "Cc1ccc(-c2noc(-c3nnn(CC(=O)Nc4cccc(C(F)(F)F)c4)c3N)n2)cc1", "max response, negative = inhibition": "inactive: -0.328%"}
{"smiles": "COc1ccc(S(=O)(=O)Nc2ccc(F)cc2)cc1N(C)S(=O)(=O)c1ccc(Cl)cc1", "Potency": "active: 20 µM"}
{"smiles": "CCOC(=O)c1cccc(NC(=O)Nc2ccc3c(c2)N(C)C(=O)c2ccccc2S3)c1", "Potency": "inconclusive: 31.6 µM [activator, single point]"}
